# Laboratory results published in the supplement of paper PMC8728848.
# The other results are listed elsewhere or left out.
# Assays:
# Assay in all cases: glycan array binding signal (z-score within array); higher = stronger binding
# Settings in all cases: glycan notation: IUPAC condensed, linker removed
# [1] = biological target: Fuc(a1-2)Gal
# Procedure, shortened: (§1)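 From the Consortium for Functional Glycomics database, 3228 arrays were curated, keeping only those whose protein sequence was available. Binding is given as a within-array Z-score averaged across arrays sharing a protein sequence and across linkers. Negative Z-scores can be read as non-binding.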
# [2] = biological target: Fuc(a1-2)Gal(b1-3)GalNAc
# Procedure, shortened: as §1
# [3] = biological target: Fuc(a1-2)Gal(b1-3)GalNAc(a1-3)[Fuc(a1-2)]Gal(b1-4)Glc
# Procedure, shortened: as §1
# [4] = biological target: Fuc(a1-2)Gal(b1-3)GalNAc(a1-3)[Fuc(a1-2)]Gal(b1-4)GlcNAc
# Procedure, shortened: as §1
# [5] = biological target: Fuc(a1-2)Gal(b1-3)GalNAc(b1-3)Gal
# Procedure, shortened: as §1
# [6] = biological target: Fuc(a1-2)Gal(b1-3)GalNAc(b1-3)Gal(a1-4)Gal(b1-4)Glc
# Procedure, shortened: as §1
# [7] = biological target: Fuc(a1-2)Gal(b1-3)GalNAc(b1-4)[Neu5Ac(a2-3)]Gal(b1-4)Glc
# Procedure, shortened: as §1
# [8] = biological target: Fuc(a1-2)Gal(b1-3)GlcNAc
# Procedure, shortened: as §1
# [9] = biological target: Fuc(a1-2)Gal(b1-3)GlcNAc(b1-2)Man(a1-3)[Fuc(a1-2)Gal(b1-3)GlcNAc(b1-2)Man(a1-6)]Man(b1-4)GlcNAc(b1-4)GlcNAc
# Procedure, shortened: as §1
# [10] = biological target: Fuc(a1-2)Gal(b1-3)GlcNAc(b1-2)Man(a1-3)[Fuc(a1-2)Gal(b1-3)GlcNAc(b1-2)Man(a1-6)]Man(b1-4)GlcNAc(b1-4)[Fuc(a1-6)]GlcNAc
# Procedure, shortened: as §1
# [11] = biological target: Fuc(a1-2)Gal(b1-3)GlcNAc(b1-3)Gal(b1-4)Glc
# Procedure, shortened: as §1
# [12] = biological target: Fuc(a1-2)Gal(b1-3)GlcNAc(b1-3)GalNAc
# Procedure, shortened: as §1
# [13] = biological target: Fuc(a1-2)Gal(b1-3)GlcNAc(b1-3)[Fuc(a1-2)Gal(b1-3)GlcNAc(b1-6)]GalNAc
# Procedure, shortened: as §1
# [14] = biological target: Fuc(a1-2)Gal(b1-3)GlcNAc(b1-3)[Gal(b1-4)GlcNAc(b1-6)]Gal(b1-4)Glc
# Procedure, shortened: as §1
# [15] = biological target: Fuc(a1-2)Gal(b1-3)GlcNAc(b1-3)[Neu5Ac(a2-6)Gal(b1-4)GlcNAc(b1-6)]Gal(b1-4)Glc
# Procedure, shortened: as §1
# [16] = biological target: Fuc(a1-2)Gal(b1-3)GlcNAc6S
# Procedure, shortened: as §1
# [17] = biological target: Fuc(a1-2)Gal(b1-3)[Fuc(a1-4)]GlcNAc
# Procedure, shortened: as §1
# [18] = biological target: Fuc(a1-2)Gal(b1-3)[Fuc(a1-4)]GlcNAc(b1-2)Man(a1-3)[Fuc(a1-2)Gal(b1-3)[Fuc(a1-4)]GlcNAc(b1-2)Man(a1-3)]Man(b1-4)GlcNAc(b1-4)GlcNAc
# Procedure, shortened: as §1
# [19] = biological target: Fuc(a1-2)Gal(b1-3)[Fuc(a1-4)]GlcNAc(b1-2)Man(a1-3)[Fuc(a1-2)Gal(b1-3)[Fuc(a1-4)]GlcNAc(b1-2)Man(a1-6)]Man(b1-4)GlcNAc(b1-4)[Fuc(a1-6)]GlcNAc(b1-4)[Fuc(a1-6)]GlcNAc
# Procedure, shortened: as §1
# [20] = biological target: Fuc(a1-2)Gal(b1-3)[Fuc(a1-4)]GlcNAc(b1-3)[Fuc(a1-3)[Gal(b1-4)]GlcNAc(b1-6)]Gal(b1-4)Glc
# Procedure, shortened: as §1
# [21] = biological target: Fuc(a1-2)Gal(b1-3)[Fuc(a1-4)]GlcNAc(b1-3)[Gal(b1-4)GlcNAc(b1-6)]Gal(b1-4)Glc
# Procedure, shortened: as §1
# [22] = biological target: Fuc(a1-2)Gal(b1-4)Glc
# Procedure, shortened: as §1
# [23] = biological target: Fuc(a1-2)Gal(b1-4)Glc6S
# Procedure, shortened: as §1
# [24] = biological target: Fuc(a1-2)Gal(b1-4)GlcNAc
# Procedure, shortened: as §1
# [25] = biological target: Fuc(a1-2)Gal(b1-4)GlcNAc(b1-2)Man
# Procedure, shortened: as §1
# [26] = biological target: Fuc(a1-2)Gal(b1-4)GlcNAc(b1-2)Man(a1-3)[Fuc(a1-2)Gal(b1-4)GlcNAc(b1-2)Man(a1-6)]Man(b1-4)GlcNAc(b1-4)GlcNAc
# Procedure, shortened: as §1
# [27] = biological target: Fuc(a1-2)Gal(b1-4)GlcNAc(b1-2)Man(a1-3)[Fuc(a1-2)Gal(b1-4)GlcNAc(b1-2)Man(a1-6)]Man(b1-4)GlcNAc(b1-4)[Fuc(a1-6)]GlcNAc
# Procedure, shortened: as §1
# [28] = biological target: Fuc(a1-2)Gal(b1-4)GlcNAc(b1-2)[Fuc(a1-2)Gal(b1-4)GlcNAc(b1-4)]Man(a1-3)[Fuc(a1-2)Gal(b1-4)GlcNAc(b1-2)Man(a1-6)]Man(b1-4)GlcNAc(b1-4)GlcNAc
# Procedure, shortened: as §1
# [29] = biological target: Fuc(a1-2)Gal(b1-4)GlcNAc(b1-3)Gal(b1-4)GlcNAc
# Procedure, shortened: as §1
# [30] = biological target: Fuc(a1-2)Gal(b1-4)GlcNAc(b1-3)Gal(b1-4)GlcNAc(b1-2)Man(a1-3)[Fuc(a1-2)Gal(b1-4)GlcNAc(b1-3)Gal(b1-4)GlcNAc(b1-2)Man(a1-6)]Man(b1-4)GlcNAc(b1-4)GlcNAc
# Procedure, shortened: as §1
# [31] = biological target: Fuc(a1-2)Gal(b1-4)GlcNAc(b1-3)Gal(b1-4)GlcNAc(b1-3)Gal(b1-4)GlcNAc
# Procedure, shortened: as §1
# [32] = biological target: Fuc(a1-2)Gal(b1-4)GlcNAc(b1-3)GalNAc
# Procedure, shortened: as §1
# [33] = biological target: Fuc(a1-2)Gal(b1-4)GlcNAc(b1-3)[Fuc(a1-2)Gal(b1-4)GlcNAc(b1-6)]GalNAc
# Procedure, shortened: as §1
# [34] = biological target: Fuc(a1-2)Gal(b1-4)GlcNAc(b1-3)[Fuc(a1-3)[Gal(b1-4)]GlcNAc(b1-6)]Gal(b1-4)Glc
# Procedure, shortened: as §1
# [35] = biological target: Fuc(a1-2)Gal(b1-4)GlcNAc(b1-6)GalNAc
# Procedure, shortened: as §1
# [36] = biological target: Fuc(a1-2)Gal(b1-4)GlcNAc6S
# Procedure, shortened: as §1
# [37] = biological target: Fuc(a1-2)Gal(b1-4)[Fuc(a1-3)]GlcNAc
# Procedure, shortened: as §1
# [38] = biological target: Fuc(a1-2)Gal(b1-4)[Fuc(a1-3)]GlcNAc(b1-2)Man(a1-3)[Fuc(a1-2)Gal(b1-4)[Fuc(a1-3)]GlcNAc(b1-2)Man(a1-6)]Man(b1-4)GlcNAc(b1-4)[Fuc(a1-6)]GlcNAc
# Procedure, shortened: as §1
# [39] = biological target: Fuc(a1-2)Gal(b1-4)[Fuc(a1-3)]GlcNAc(b1-2)[Fuc(a1-2)Gal(b1-4)[Fuc(a1-3)]GlcNAc(b1-4)]Man(a1-3)[Fuc(a1-2)Gal(b1-4)[Fuc(a1-3)]GlcNAc(b1-2)Man(a1-6)]Man(b1-4)GlcNAc(b1-4)GlcNAc
# Procedure, shortened: as §1
# [40] = biological target: Fuc(a1-2)Gal(b1-4)[Fuc(a1-3)]GlcNAc(b1-3)Gal(b1-4)[Fuc(a1-3)]GlcNAc
# Procedure, shortened: as §1
# [41] = biological target: Fuc(a1-2)Gal(b1-4)[Fuc(a1-3)]GlcNAc(b1-3)Gal(b1-4)[Fuc(a1-3)]GlcNAc(b1-3)Gal(b1-4)[Fuc(a1-3)]GlcNAc
# Procedure, shortened: as §1
# [42] = biological target: Fuc(a1-2)Gal(b1-4)[Fuc(a1-3)]GlcNAc(b1-3)GalNAc
# Procedure, shortened: as §1
# [43] = biological target: Fuc(a1-2)Gal(b1-4)[Fuc(a1-3)]GlcNAc(b1-3)[Neu5Ac(a2-6)Gal(b1-4)GlcNAc(b1-6)]Gal(b1-4)Glc
# Procedure, shortened: as §1
# [44] = biological target: Fuc(a1-2)Gal3S(b1-4)GlcNAc
# Procedure, shortened: as §1
# [45] = biological target: Fuc(a1-2)Gal6S(b1-3)GlcNAc
# Procedure, shortened: as §1
binder,measurement,setting,value
rCnSL-proA (Clitocybe nebularis) (protein) AAFFSLVVLLALLPFGIHASALPSTELTPRVNPNLPGPNDVFVGFRGTNNIVGAIYEKDGIKDTPLNNGADAEMGPGSYITDGLFTARIFASGSAGNNPGTTATVCKIYASGVQWRGAPKGYIPVAYFGNGPTAEQRRQTYLRTLGLPGTAIRFGNLNTNPGQGPTAPRQMVVPPGPLRSLLKASCFPAADTRLPQTLHYFEKRVDWNIITAADSQTWGH,glycan array binding signal (z-score),[1],-0.21
same,glycan array binding signal (z-score),[2],-0.318
same,glycan array binding signal (z-score),[3],-0.536
same,glycan array binding signal (z-score),[4],-0.429
same,glycan array binding signal (z-score),[5],0.305
same,glycan array binding signal (z-score),[6],-0.6
same,glycan array binding signal (z-score),[7],-0.514
same,glycan array binding signal (z-score),[8],-0.622
same,glycan array binding signal (z-score),[9],0.11
same,glycan array binding signal (z-score),[10],1.7
same,glycan array binding signal (z-score),[11],-0.343
same,glycan array binding signal (z-score),[12],-0.242
same,glycan array binding signal (z-score),[13],-0.094
same,glycan array binding signal (z-score),[14],0.548
same,glycan array binding signal (z-score),[15],-0.164
same,glycan array binding signal (z-score),[16],-0.302
same,glycan array binding signal (z-score),[17],-0.287
same,glycan array binding signal (z-score),[18],6
same,glycan array binding signal (z-score),[19],0.195
same,glycan array binding signal (z-score),[20],-0.573
same,glycan array binding signal (z-score),[21],-0.078
same,glycan array binding signal (z-score),[22],-0.272
same,glycan array binding signal (z-score),[23],-0.186
same,glycan array binding signal (z-score),[24],-0.477
same,glycan array binding signal (z-score),[25],-0.148
same,glycan array binding signal (z-score),[26],0.274
same,glycan array binding signal (z-score),[27],3.05
same,glycan array binding signal (z-score),[28],1.54
same,glycan array binding signal (z-score),[29],-0.388
same,glycan array binding signal (z-score),[30],0.72
same,glycan array binding signal (z-score),[31],-0.154
same,glycan array binding signal (z-score),[32],0.145
same,glycan array binding signal (z-score),[33],-0.121
same,glycan array binding signal (z-score),[34],-0.643
same,glycan array binding signal (z-score),[35],-0.359
same,glycan array binding signal (z-score),[36],-0.402
same,glycan array binding signal (z-score),[37],-0.453
same,glycan array binding signal (z-score),[38],0.746
same,glycan array binding signal (z-score),[39],0.882
same,glycan array binding signal (z-score),[40],-0.674
same,glycan array binding signal (z-score),[41],-0.409
same,glycan array binding signal (z-score),[42],-0.242
same,glycan array binding signal (z-score),[43],-0.085
same,glycan array binding signal (z-score),[44],-0.453
same,glycan array binding signal (z-score),[45],-0.527
